# Paper PMC6212790
# This is one part of the list. At the low end of the ranking the order means little.
# Target: T1, GST-Rok (full length) (UniProt O34857)
# T1 sequence: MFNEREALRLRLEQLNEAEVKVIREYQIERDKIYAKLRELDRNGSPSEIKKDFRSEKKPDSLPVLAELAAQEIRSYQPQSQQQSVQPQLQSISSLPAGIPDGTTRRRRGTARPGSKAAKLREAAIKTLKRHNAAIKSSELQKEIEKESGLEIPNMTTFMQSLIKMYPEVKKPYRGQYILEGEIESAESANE
# Test: protein binding microarray;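 further: rank score from −0.5 (least bound) to 0.5 (best bound)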
# Conditions: Rok is a gene silencer of Bacillus subtilis; high values mean tight binding; most listed sequences are background and not binding sites; double strand, one strand shown
row,Sequence,binding signal
1,AGCATCCA,-0.0796 E-score
2,CTTAGACC,-0.171 E-score
3,AGCGTACT,0.0975 E-score
4,AAAGAGCA,-0.282 E-score
5,CCAGAGTA,-0.125 E-score
6,AGGTGCAA,0.0285 E-score
7,AGATACGC,0.136 E-score
8,AACTCTAG,0.0553 E-score
9,GGCAAAAC,-0.0301 E-score
10,GGAAAGGA,-0.0983 E-score
11,CTCAGGTC,-0.312 E-score
12,GGTGGCAC,-0.0634 E-score
13,CTACCCTC,-0.104 E-score
14,ACGTTAGC,-0.0213 E-score
15,ATGAGGTG,0.028 E-score
16,ACACACAT,-0.0651 E-score
17,CACTGGAG,-0.135 E-score
18,CGATTACC,0.0362 E-score
19,ACTTGGAG,-0.0771 E-score
20,AGGACCGA,-0.189 E-score
21,AACAATAT,0.144 E-score
22,ACCTACTG,0.295 E-score
23,GCAAGACA,-0.0947 E-score
24,GACCTAAA,-0.034 E-score
25,CGATGGGC,-0.249 E-score

row,Sequence,binding signal
1,GTGCACGA,-0.045 E-score
2,GTCTTGAA,-0.32 E-score
3,AACCACCC,-0.239 E-score
4,CACGTACG,-0.118 E-score
5,AAAGTAGA,0.287 E-score
6,ACCTAGGG,-0.142 E-score
7,ACCCTGAG,-0.0255 E-score
8,GACGGCAA,-0.163 E-score
9,GGCTCTAA,0.0778 E-score
10,AAAATAGT,0.407 E-score
11,CCCATTAA,-0.225 E-score
12,CTAGTCAA,0.114 E-score
13,CTGCTAAC,0.143 E-score
14,AGTCTGGG,0.00199 E-score
15,CGTAGCAC,0.00806 E-score
16,ACGGTAGA,0.365 E-score
17,GATTGTAC,0.317 E-score
18,CGCAAAAC,0.0654 E-score
19,ACAGTTCA,0.165 E-score
20,CATAATAA,0.252 E-score
21,CGTGGACA,-0.115 E-score
22,GGGACGAC,0.0145 E-score
23,ACACACTA,0.311 E-score
24,AATCTAAT,0.263 E-score
25,AGCCCTAT,-0.0484 E-score

row,Sequence,binding signal
1,AAAACAGT,0.231 E-score
2,CTCGGTAA,0.0988 E-score
3,ACAAAGAT,0.0709 E-score
4,CTCGCTTC,-0.129 E-score
5,AACGTAGC,-0.0241 E-score
6,AACCCAGG,-0.0972 E-score
7,GCGATACA,0.179 E-score
8,ATACTACA,0.408 E-score
9,CCCCTGAG,-0.249 E-score
10,TACTGTCA,0.197 E-score
11,ATAATAGC,0.288 E-score
12,CGTGAATC,-0.00109 E-score
13,ACAATACT,0.227 E-score
14,CCATGTTC,0.00789 E-score
15,ATACAGAT,0.224 E-score
16,GCTATCAA,0.164 E-score
17,CTTAAATC,-0.0428 E-score
18,CTACCTTC,0.0635 E-score
19,AACTGTTG,-0.0237 E-score
20,AGGTGCAT,-0.0671 E-score
21,CTAGATGC,0.0945 E-score
22,CTTCAACA,-0.0039 E-score
23,GGAATATA,0.366 E-score
24,CCTTGTTA,-0.224 E-score
25,AATGCAGG,-0.0735 E-score

row,Sequence,binding signal
1,GCCTGAAA,-0.212 E-score
2,CTTTGAAC,-0.0397 E-score
3,CTGTCTCA,-0.0922 E-score
4,ACCCTGCA,-0.0592 E-score
5,ATAAGGAG,-0.0177 E-score
6,GGCATCAA,-0.252 E-score
7,GACGGAGC,-0.285 E-score
8,CATAGCTA,0.306 E-score
9,GCAACAAC,0.021 E-score
10,AACGTGTC,0.0292 E-score
11,CCTAACCG,-0.261 E-score
12,AGATGCCT,-0.171 E-score
13,AAACCCTG,-0.208 E-score
14,AGGTCATG,0.0996 E-score
15,TCTCAAAA,0.116 E-score
16,AGTGCCAG,-0.325 E-score
17,ACGAAGAG,0.0403 E-score
18,GGTCACTA,-0.0958 E-score
19,AGCCTTCG,-0.27 E-score
20,CCGGACTC,-0.22 E-score
21,CGGGCAAG,-0.219 E-score
22,AATGCTCA,-0.131 E-score
23,AGCAGCTC,-0.203 E-score
24,GCCAGACA,-0.349 E-score
25,AAGACGGA,-0.174 E-score

row,Sequence,binding signal
1,TTACGTAA,0.283 E-score
2,GACGAATC,-0.0614 E-score
3,CACGCGCC,-0.32 E-score
4,GGCTCTCA,-0.378 E-score
5,ACATACGG,0.197 E-score
6,GTGTGGAA,0.00658 E-score
7,AACTCAAA,0.0687 E-score
8,ATGTAACC,-0.000591 E-score
9,CTATCCCC,-0.304 E-score
10,TATTGCAA,0.253 E-score
11,AAAACAAG,-0.0403 E-score
12,AAAAATGT,0.132 E-score
13,AGGTGCGG,-0.321 E-score
14,CTTTTAAC,-0.0573 E-score
15,AGTCGTAA,0.217 E-score
16,ATGGTACA,0.206 E-score
17,CGAGTGGC,-0.162 E-score
18,TCCTGACA,-0.0875 E-score
19,AGTAAGAT,0.272 E-score
20,GATAGAGA,0.0391 E-score
21,TCTTTACA,0.237 E-score
22,CAGTCGGA,-0.287 E-score
23,GATAAAGC,-0.099 E-score
24,ATCAACGC,0.109 E-score
25,ACTTCCAT,0.0223 E-score

row,Sequence,binding signal
1,CCTTTCAA,-0.236 E-score
2,GCCACCGC,-0.105 E-score
3,ATATTCGC,0.129 E-score
4,ACCACCAA,0.0478 E-score
5,AGTACGAC,0.0928 E-score
6,CTCGAATC,0.0776 E-score
7,CTATGCGA,0.103 E-score
8,ATAGCAAG,0.23 E-score
9,CCTCTGTC,-0.148 E-score
10,TATGAGAA,0.0958 E-score
11,GGGTAAAC,0.0448 E-score
12,TGCAAGCA,-0.276 E-score
13,ATTGCAAG,0.0536 E-score
14,TCTTACCA,0.208 E-score
15,CAGAGACG,-0.203 E-score
16,GTCCATTA,0.12 E-score
17,ACGCGAGA,-0.0956 E-score
18,AAGGTCAC,-0.084 E-score
19,AAGGGACA,-0.183 E-score
20,AAAATGCA,0.0508 E-score
21,CAGAAGGG,-0.29 E-score
22,AGGGACTA,-0.206 E-score
23,TGTAATAA,0.241 E-score
24,AATTACCC,0.215 E-score
25,CACTGCAG,0.074 E-score

row,Sequence,binding signal
1,GAAGACGA,-0.276 E-score
2,GCCATACA,0.19 E-score
3,CCATGCAA,-0.112 E-score
4,ACATAGGG,0.0564 E-score
5,GTCTAAAA,-0.122 E-score
6,CGAGTCCA,-0.256 E-score
7,ACGATCTG,-0.0392 E-score
8,CCTCGTTC,-0.135 E-score
9,TACACAAA,0.178 E-score
10,AAAAATTG,0.0557 E-score
11,TAGGGCAA,-0.0175 E-score
12,AGGCTCGA,-0.0603 E-score
13,GTCCGCCA,-0.33 E-score
14,ATTGTCTG,-0.142 E-score
15,CCGTCAAG,-0.196 E-score
16,GAATCCGC,-0.0597 E-score
17,GCGAGTCA,-0.145 E-score
18,ATTGTTTG,0.117 E-score
19,GAGAATGC,0.042 E-score
20,ATCGGGCG,-0.172 E-score
21,GATAGTAC,0.18 E-score
22,CCCGCAGC,-0.349 E-score
23,AGCTTCAG,-0.286 E-score
24,GGGCACTA,-0.245 E-score
25,CCCAACCA,-0.142 E-score

row,Sequence,binding signal
1,ACCGAGCC,-0.132 E-score
2,AGAACAAG,-0.0116 E-score
3,AGCCCACC,-0.414 E-score
4,ACCATTGG,-0.146 E-score
5,AAGTAGGT,0.303 E-score
6,CACTGGGC,-0.332 E-score
7,CGCCCATC,-0.255 E-score
8,ATTGTCAA,-0.0429 E-score
9,ATGACAAA,0.192 E-score
10,AAACTGGC,-0.0579 E-score
11,AAATCTTA,0.134 E-score
12,CCTGCGCA,0.0304 E-score
13,AAAGTCGC,0.0343 E-score
14,AAAGCCAA,-0.143 E-score
15,ACTCATCT,-0.0608 E-score
16,AATGGACC,-0.0357 E-score
17,GAATGCAA,-0.0116 E-score
18,ATGAGGAC,-0.244 E-score
19,ATGAGGGC,-0.183 E-score
20,TGAGCGAA,0.0392 E-score
21,ACGCGCAA,0.0495 E-score
22,AATGAACA,0.159 E-score
23,CTGGTACA,0.21 E-score
24,CCCCGCAA,-0.272 E-score
25,ATGCCTCC,-0.253 E-score

row,Sequence,binding signal
1,ACGGCCCA,-0.32 E-score
2,ACGGGTAA,-0.00525 E-score
3,AGAGCCCA,-0.362 E-score
4,AACAGGGG,-0.255 E-score
5,GGGTAACA,0.0142 E-score
6,ACGGTTAT,0.294 E-score
7,AGTTGGTC,-0.276 E-score
8,ACTGTGAG,0.151 E-score
9,CGCAAAGC,-0.153 E-score
10,CTTTATCC,-0.0987 E-score
11,CTGGCTAC,-0.105 E-score
12,AATCGGAC,0.023 E-score
13,CCGGGAGG,-0.296 E-score
14,GGACGTTA,-0.0674 E-score
15,CGAAAAAG,-0.00929 E-score
16,GACAAAAA,0.0475 E-score
17,GCACAAAC,0.0295 E-score
18,AAGGATCT,-0.0752 E-score
19,ACGGGCAG,-0.257 E-score
